The list shows a part of the results.

The subject of the experiment is PF3D7_0420300 AP2 domain 1 (GST-tagged). Description: gcPBM binding intensity (ln(normalized median fluorescence intensity)); higher = stronger DNA binding. The method in brief:
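The highest Masliner-normalised natural-log median intensity across replicate spots of either probe orientation is reported as binding intensity. GST-tagged P. falciparum DNA-binding domains expressed in E. coli were applied for 1 h to an Agilent 4 × 180k array of primer-extended double-stranded 36-bp intergenic genomic probes plus negative controls, and bound protein was detected with Alexa488 anti-GST antibody and scanned at 488 nm.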
As for “AAATATATTATTATCTTATCAATTAAAAGAATAAAC [CACACA_negctrl_site779]”, the “gcPBM binding intensity (ln)” value was found to be 9.09.
As for “AAATATAAAAGTATATGTACATATATATATATATAT [XGTACX_site7446]”, the figure is 9.3.
Next, “AATAAATAGATATATACACACATATATCTATAATAT [CACACA_site6557]”: 9.5.
For “TATATAATGGTAAAAACACACAAATATGAAGATGTT [CACACA_site722]”, the “gcPBM binding intensity (ln)” value turned out to be 9.52.
Next, “CGTGTGTCCCCCTTAATCATCCAATCGTTCATTTTG [CACACA_negctrl_site1008]”: 9.55; “AGAGGATCATAGTTATGTACACATATTTAACATAAA [XGTACX_site7232]”: 9.23; “TCTTCATTTTTATGTGCATGTAAAATTTTTTTTTTT [TGCATGCA_site963]”: 9.21.
Next, “GACAATAAAAAGAAAAGTACATATATAAATTAACCA [XGTACX_site7858]”: 9.42; “TTTTTTTCTAATTATGCACACATATCAAAATATTCA [CACACA_site8886]”: 9.15.
As for “ATATTTATTATATAATGTACAAAAAAAAAAAAAAAA [XGTACX_site629]”, the figure is 8.83; as for “TAAAATAAAAATTAAAGTACATATGTATATATATAT [XGTACX_site3984]”, 9.39.
As for “AATCCTTACGGACACACACACACGAATAAATAAAAA [CACACA_site4422]”, the “gcPBM binding intensity (ln)” value was 9.99.
Consider “GAGTATTCAAGTATTAGTACATATTATATAATAAAT [XGTACX_site7630]”, for which the “gcPBM binding intensity (ln)” value came out at 9.16.
As for “TACAAAATGGGGAACACACACATATATAAATAAATA [CACACA_site7751]”, the figure is 10.1; as for “ATAATTATTTTAGAAACACACAAATTAGAAAAAACA [CACACA_site3636]”, 9.44; as for “ATATAATTATTGATATGTACATATTTGTTCTAGTTT [XGTACX_site3012]”, 9.38.
As for “ATTCAAATATTAAAAAGTACAAAAAAAAAACAAAAA [XGTACX_site1174]”, the figure is 9.57; as for “ACATTAAAATATGATTGTACATTTTATTATATTATA [XGTACX_site912]”, 9.14; as for “ACAACACTATATTACACATGCATTAAGAGAGTGAAC [TGCATGCA_site124]”, 9.51.
Next, “CTATCATATTTATGCACACAAAAATAATTAATTCGT [CACACA_site2614]”: 9.35; “TATTTTGAGAATAAATGTACGAATTTTATATTTAAA [XGTACX_site1336]”: 8.92; “ACCTGTTCATATGATCGTACACGTCAGTTTATATGA [XGTACX_site3869]”: 9.42.
Turning to “CAAAATATAACATCATCACACACATATACTTTATAT [CACACA_site8292]”, the “gcPBM binding intensity (ln)” value came out at 9.83.
As for “ATTTAAAAATAAAGAACACACATATGTAAAATATAT [CACACA_site3754]”, the figure is 9.55.
Next, “TATTTAAGAGTATGAACACACATCATACACATATAA [CACACA_site3617]”: 9.38.
Regarding “TTATTAATATATAAATGTACATATACAATACATAAA [XGTACX_site5571]”, the “gcPBM binding intensity (ln)” value was found to be 9.24.
Next, “TATGTTTGTGTATATATTTATTTTTATGTAATTATA [GTGCAC_negctrl_site219]”: 9.66; “AATAGAACTATTACACGTACAGAACATGAATTAGTT [XGTACX_site7518]”: 9.36; “TTTTTTAATTAGTACAAACACACATATACAGACAAA [CACACA_site2564]”: 9.56.
As for “TGTTATATATGTAATTGTACACTTATACAAAATTAT [XGTACX_site6350]”, the figure is 9.19.
In the case of “ATTTAGAATGCGTATACACACATATATAGATTTGCT [CACACA_site626]”, the “gcPBM binding intensity (ln)” value came out at 9.42.
Next, “AAAAAAATTAGACACACACACACATATAAATATGTA [CACACA_site6618]”: 10.1; “TCCTTATATGGGCACACACACACAATAAAATGAAAA [CACACA_site1030]”: 10; “AAAATTAGGTATATATGTACATATATAAATATATAT [XGTACX_site3555]”: 9.28.
As to “GTTTATATTAAACAAACACACACATATATATATATA [CACACA_site8749]”, the “gcPBM binding intensity (ln)” value worked out at 9.52.
Next, “TATGCTACAAGGAGAACACACAATTGCCACTTTTGG [CACACA_site2166]”: 9.43.
Next, “AACCATTATTTCTCTACACACATTTATGTCATTTAC [CACACA_site1499]”: 9.96; “ATCTATATAATATATACACACAAATATACAAAAAAA [CACACA_site1013]”: 9.65.
As for “TTATATTATATATATAGTACACATGTAATATTTCAA [XGTACX_site1791]”, the figure is 9.05; as for “TACATGCATTTCTCATGTACATAATTTTCCCATATT [XGTACX_site5158]”, 9.2.
With “ATAAATTAAAGACACACACACATCTGGATACCCCTA [CACACA_site7546]”, the “gcPBM binding intensity (ln)” value was found to be 9.97.
Next, “TAAATATGCTCACAGATGCACTAACACATTTTTATA [GTGCAC_site9997]”: 9.2; “TTTTATACATAAATGTGTACGTATATATAATGAATT [XGTACX_site2762]”: 9.29.
Next, “TATTGTAGAGGCAAAAGTACACATTTAATAATTTCC [XGTACX_site1151]”: 9.23.

Source of the values: the supplement of paper PMC11417369.
